# Experimental data taken from the supplement of paper PMC8728848.
# This is one part of the list.
# Tests used:
# Assay in all cases: glycan array binding signal (z-score within array); higher = stronger binding
# Settings in all cases: glycan notation: IUPAC condensed, linker removed
# [1] = target: Neu5Ac(a2-3)Gal(b1-3)GlcNAc(b1-2)Man(a1-3)[GlcNAc(b1-4)][Neu5Ac(a2-3)Gal(b1-3)GlcNAc(b1-2)Man(a1-6)]Man(b1-4)GlcNAc(b1-4)GlcNAc
# Procedure, shortened: (§1)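 Columns mapping to the same glycan were averaged after glycan names were converted to IUPAC-condensed notation. The data come from 3228 arrays in the Consortium for Functional Glycomics database, limited to those with an available protein sequence. Binding is reported as a within-array Z-score averaged across arrays of one protein sequence and across linkers.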
# [2] = target: Neu5Ac(a2-3)Gal(b1-3)GlcNAc(b1-2)Man(a1-3)[Neu5Ac(a2-3)Gal(b1-3)GlcNAc(b1-2)Man(a1-6)]Man(b1-4)GlcNAc(b1-4)GlcNAc
# Procedure, shortened: as §1
# [3] = target: Neu5Ac(a2-3)Gal(b1-3)GlcNAc(b1-3)Gal(b1-3)GlcNAc
# Procedure, shortened: as §1
# [4] = target: Neu5Ac(a2-3)Gal(b1-3)GlcNAc(b1-3)Gal(b1-4)GlcNAc
# Procedure, shortened: as §1
# [5] = target: Neu5Ac(a2-3)Gal(b1-3)GlcNAc(b1-3)GalNAc
# Procedure, shortened: as §1
# [6] = target: Neu5Ac(a2-3)Gal(b1-3)GlcNAc(b1-4)Gal(b1-4)Glc
# Procedure, shortened: as §1
# [7] = target: Neu5Ac(a2-3)Gal(b1-3)GlcNAc(b1-6)GalNAc
# Procedure, shortened: as §1
# [8] = target: Neu5Ac(a2-3)Gal(b1-3)GlcNAc6S
# Procedure, shortened: as §1
# [9] = target: Neu5Ac(a2-3)Gal(b1-3)[Fuc(a1-4)]GlcNAc
# Procedure, shortened: as §1
# [10] = target: Neu5Ac(a2-3)Gal(b1-3)[Fuc(a1-4)]GlcNAc(b1-3)Gal(b1-3)[Fuc(a1-4)]GlcNAc
# Procedure, shortened: as §1
# [11] = target: Neu5Ac(a2-3)Gal(b1-3)[Fuc(a1-4)]GlcNAc(b1-3)Gal(b1-4)[Fuc(a1-3)]GlcNAc
# Procedure, shortened: as §1
# [12] = target: Neu5Ac(a2-3)Gal(b1-3)[GlcNAc(b1-6)]GalNAc
# Procedure, shortened: as §1
# [13] = target: Neu5Ac(a2-3)Gal(b1-3)[Neu5Ac(a2-6)]GalNAc
# Procedure, shortened: as §1
# [14] = target: Neu5Ac(a2-3)Gal(b1-3)[Neu5Ac(a2-6)]GlcNAc(b1-3)[Fuc(a1-3)[Gal(b1-4)]GlcNAc(b1-6)]Gal(b1-4)Glc
# Procedure, shortened: as §1
# [15] = target: Neu5Ac(a2-3)Gal(b1-3)]Neu5Ac(a2-3)Gal(b1-4)]GlcNAc
# Procedure, shortened: as §1
# Neu5Ac(a2-3)Gal(b1-4)Glc = target: Neu5Ac(a2-3)Gal(b1-4)Glc
# Procedure, shortened: as §1
# [16] = target: Neu5Ac(a2-3)Gal(b1-4)GlcNAc
# Procedure, shortened: as §1
# [17] = target: Neu5Ac(a2-3)Gal(b1-4)GlcNAc(b1-2)Man
# Procedure, shortened: as §1
# [18] = target: Neu5Ac(a2-3)Gal(b1-4)GlcNAc(b1-2)Man(a1-3)[GlcNAc(b1-4)][Neu5Ac(a2-3)Gal(b1-4)GlcNAc(b1-2)Man(a1-6)]Man(b1-4)GlcNAc(b1-4)GlcNAc
# Procedure, shortened: as §1
# [19] = target: Neu5Ac(a2-3)Gal(b1-4)GlcNAc(b1-2)Man(a1-3)[Neu5Ac(a2-3)Gal(b1-4)GlcNAc(b1-2)Man(a1-6)]Man(b1-4)GlcNAc(b1-4)GlcNAc
# Procedure, shortened: as §1
# [20] = target: Neu5Ac(a2-3)Gal(b1-4)GlcNAc(b1-2)Man(a1-3)[Neu5Ac(a2-3)Gal(b1-4)GlcNAc(b1-2)Man(a1-6)]Man(b1-4)GlcNAc(b1-4)[Fuc(a1-6)]GlcNAc
# Procedure, shortened: as §1
# [21] = target: Neu5Ac(a2-3)Gal(b1-4)GlcNAc(b1-2)Man(a1-3)[Neu5Ac(a2-6)Gal(b1-4)GlcNAc(b1-2)Man(a1-6)]Man(b1-4)GlcNAc(b1-4)GlcNAc
# Procedure, shortened: as §1
# [22] = target: Neu5Ac(a2-3)Gal(b1-4)GlcNAc(b1-2)[Neu5Ac(a2-3)Gal(b1-4)GlcNAc(b1-4)]Man(a1-3)[GlcNAc(b1-4)][Neu5Ac(a2-3)Gal(b1-4)GlcNAc(b1-2)[Neu5Ac(a2-3)Gal(b1-4)GlcNAc(b1-6)]Man(a1-6)]Man(b1-4)GlcNAc(b1-4)GlcNAc
# Procedure, shortened: as §1
# [23] = target: Neu5Ac(a2-3)Gal(b1-4)GlcNAc(b1-2)[Neu5Ac(a2-3)Gal(b1-4)GlcNAc(b1-4)]Man(a1-3)[GlcNAc(b1-4)][Neu5Ac(a2-3)Gal(b1-4)GlcNAc(b1-4)Man(a1-6)]Man(b1-4)GlcNAc(b1-4)GlcNAc
# Procedure, shortened: as §1
# [24] = target: Neu5Ac(a2-3)Gal(b1-4)GlcNAc(b1-2)[Neu5Ac(a2-3)Gal(b1-4)GlcNAc(b1-6)]Man(a1-6)[Neu5Ac(a2-3)Gal(b1-4)GlcNAc(b1-2)Man(a1-3)]Man(b1-4)GlcNAc(b1-4)GlcNAc
# Procedure, shortened: as §1
# [25] = target: Neu5Ac(a2-3)Gal(b1-4)GlcNAc(b1-2)[Neu5Ac(a2-3)Gal(b1-4)GlcNAc(b1-6)]Man(a1-6)[Neu5Ac(a2-3)Gal(b1-4)GlcNAc(b1-2)Man(a1-3)][GlcNAc(b1-4)]Man(b1-4)GlcNAc(b1-4)GlcNAc
# Procedure, shortened: as §1
# [26] = target: Neu5Ac(a2-3)Gal(b1-4)GlcNAc(b1-3)Gal
# Procedure, shortened: as §1
# [27] = target: Neu5Ac(a2-3)Gal(b1-4)GlcNAc(b1-3)Gal(b1-3)GlcNAc
# Procedure, shortened: as §1
# [28] = target: Neu5Ac(a2-3)Gal(b1-4)GlcNAc(b1-3)Gal(b1-4)GlcNAc
# Procedure, shortened: as §1
# [29] = target: Neu5Ac(a2-3)Gal(b1-4)GlcNAc(b1-3)Gal(b1-4)GlcNAc(b1-2)Man(a1-3)[Neu5Ac(a2-3)Gal(b1-4)GlcNAc(b1-3)Gal(b1-4)GlcNAc(b1-2)Man(a1-6)]Man(b1-4)GlcNAc(b1-4)GlcNAc
# Procedure, shortened: as §1
# [30] = target: Neu5Ac(a2-3)Gal(b1-4)GlcNAc(b1-3)Gal(b1-4)GlcNAc(b1-3)Gal(b1-4)GlcNAc
# Procedure, shortened: as §1
# [31] = target: Neu5Ac(a2-3)Gal(b1-4)GlcNAc(b1-3)Gal(b1-4)GlcNAc(b1-3)Gal(b1-4)GlcNAc(b1-2)Man(a1-3)[Neu5Ac(a2-3)Gal(b1-4)GlcNAc(b1-3)Gal(b1-4)GlcNAc(b1-3)Gal(b1-4)GlcNAc(b1-2)Man(a1-6)]GalNAc
# Procedure, shortened: as §1
# [32] = target: Neu5Ac(a2-3)Gal(b1-4)GlcNAc(b1-3)Gal(b1-4)GlcNAc(b1-3)GalNAc
# Procedure, shortened: as §1
# [33] = target: Neu5Ac(a2-3)Gal(b1-4)GlcNAc(b1-3)Gal(b1-4)GlcNAc(b1-3)[Neu5Ac(a2-3)Gal(b1-4)GlcNAc(b1-3)Gal(b1-4)GlcNAc(b1-6)]GalNAc
# Procedure, shortened: as §1
# [34] = target: Neu5Ac(a2-3)Gal(b1-4)GlcNAc(b1-3)Gal(b1-4)GlcNAc(b1-6)[Gal(b1-3)]GalNAc
# Procedure, shortened: as §1
# [35] = target: Neu5Ac(a2-3)Gal(b1-4)GlcNAc(b1-3)Gal(b1-4)[Fuc(a1-3)]GlcNAc
# Procedure, shortened: as §1
# [36] = target: Neu5Ac(a2-3)Gal(b1-4)GlcNAc(b1-3)GalNAc
# Procedure, shortened: as §1
# [37] = target: Neu5Ac(a2-3)Gal(b1-4)GlcNAc(b1-3)[Neu5Ac(a2-3)Gal(b1-4)GlcNAc(b1-6)]GalNAc
# Procedure, shortened: as §1
binder,measurement,setting,value
SP15308A-bot-339-19-339 (Bacteroides ovatus) (protein) ACNNEWEDEQYEQYISFKSPIPAGGEGVTDIYVRYKEDGKVTYRLPIVVSGSTTNTLDREVHIAVDKDTLETLNIERFSIHRPGLWYTALEEDKYDFPKTVHISAGSSVEQLNIDFNLQGIDMLEKWVLPLTIVDDPSYNYKSHPRKNYAKALLRVIPFNNYSGSYTSSAMKVYTYINGKPDTNARTANKRTGYVINDNTVFFYAGLISEDLDKEVREKYKINVHFNEDGTLHMEQGDPTNKMKFELIGTPTYSKTSVMDATRPYLERRYVQIMFEYDFEDFSYGGNGVDVIPIKYKVEGSMTLQRNINTQIPDEDQQIEW,glycan array binding signal (z-score),[1],-0.338
same,glycan array binding signal (z-score),[2],-0.508
same,glycan array binding signal (z-score),[3],-0.321
same,glycan array binding signal (z-score),[4],0.11
same,glycan array binding signal (z-score),[5],-0.085
same,glycan array binding signal (z-score),[6],-0.393
same,glycan array binding signal (z-score),[7],-0.333
same,glycan array binding signal (z-score),[8],0.047
same,glycan array binding signal (z-score),[9],-0.073
same,glycan array binding signal (z-score),[10],-0.283
same,glycan array binding signal (z-score),[11],0.438
same,glycan array binding signal (z-score),[12],-0.391
same,glycan array binding signal (z-score),[13],-0.446
same,glycan array binding signal (z-score),[14],-0.697
same,glycan array binding signal (z-score),[15],-0.238
same,glycan array binding signal (z-score),Neu5Ac(a2-3)Gal(b1-4)Glc,0.997
same,glycan array binding signal (z-score),[16],-0.021
same,glycan array binding signal (z-score),[17],-0.249
same,glycan array binding signal (z-score),[18],-0.236
same,glycan array binding signal (z-score),[19],-0.552
same,glycan array binding signal (z-score),[20],-0.039
same,glycan array binding signal (z-score),[21],0.133
same,glycan array binding signal (z-score),[22],-0.001
same,glycan array binding signal (z-score),[23],-0.388
same,glycan array binding signal (z-score),[24],0.847
same,glycan array binding signal (z-score),[25],-0.44
same,glycan array binding signal (z-score),[26],-0.268
same,glycan array binding signal (z-score),[27],0.117
same,glycan array binding signal (z-score),[28],-0.729
same,glycan array binding signal (z-score),[29],0.704
same,glycan array binding signal (z-score),[30],-0.258
same,glycan array binding signal (z-score),[31],0.516
same,glycan array binding signal (z-score),[32],-0.51
same,glycan array binding signal (z-score),[33],-0.103
same,glycan array binding signal (z-score),[34],-0.214
same,glycan array binding signal (z-score),[35],0.411
same,glycan array binding signal (z-score),[36],0.718
same,glycan array binding signal (z-score),[37],-0.228
